Measurements taken from PMC6212790.
The other results are listed elsewhere or left out. At the low end of the ranking, values are background and their order means little.

target: T1, GST-Rok-C97-191 (UniProt O34857); assay: protein binding microarray; conditions: Rok is a gene silencer of Bacillus subtilis; high values mean tight binding; most listed sequences are background and not binding sites; double strand, one strand shown;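 note: rank score from −0.5 (least bound) to 0.5 (best bound)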
T1 sequence: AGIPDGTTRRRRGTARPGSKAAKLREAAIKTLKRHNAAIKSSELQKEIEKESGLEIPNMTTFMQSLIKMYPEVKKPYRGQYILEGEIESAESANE

Sequence	binding signal [E-score]
ACGCACAG	-0.0447
ATGTGTGA	-0.017
AGACTCGG	-0.171
AGCACTCC	0.0522
TTTATAAA	0.283
ATAGGGGC	-0.205
ATAGCTAG	0.271
GGGTGTTA	-0.0544
TCAGTCAA	-0.113
GCCACCGA	-0.0711
CCTCATTC	-0.0967
AGAAGGGC	-0.234
CGCAAACG	-0.0299
ACGGGCTC	-0.184
GACGGGGA	-0.238
GCTGAGCA	-0.0543
ATCGAGAT	0.104
CGCAGGGC	-0.287
AAAGGGCG	-0.172
GTTATAAC	0.18
GCAGGTAC	0.0415
CTTACCCC	-0.204
CCGCCGTC	-0.247
CCCCGATA	-0.0977
ATGTTTTC	0.207

Sequence	binding signal [E-score]
ACGGGATG	-0.0737
ACGCCAAC	-0.118
AGTAGAAC	0.234
ACATCATG	-0.155
AGATAAGA	-0.0192
ACAGGCTG	-0.19
CCCGTCTC	-0.241
AGAAAGCT	0.292
GTACCCGA	0.115
GGACTGTA	0.135
CGTTTATA	0.196
ACCAGGGG	-0.125
GCGCTAAA	0.143
ATAGGGCA	0.0459
CGACTGAC	-0.0626
AGATGAGC	-0.0848
GATACCGC	0.024
CTTATCGC	0.155
CACTTAAG	2.2e-05
GGAAAACC	-0.0509
ATGTGTCC	0.0399
AGTTTCTC	0.244
GATCGCAA	0.0316
CGGGGCTA	-0.192
GAAATCAC	0.114

Sequence	binding signal [E-score]
TGCCCACA	-0.149
ACAGCTCG	0.00556
AGTAACGG	0.118
CAAATCAC	0.0129
GCACCTAC	0.101
CGCATATA	0.0882
CAGGTTGA	-0.124
AACAAGGG	-0.173
GCTACTAC	0.264
CGCGTAAA	0.0976
GGAGAGAA	0.0553
AACTAGGC	0.0168
GGCCCATA	-0.0669
TAACAACA	0.00501
ACACACCT	0.0408
CGAACAGC	-0.182
GTTATAAA	0.247
GAGTGACC	-0.317
AGGGACTC	-0.228
GGCTGAGA	-0.00381
CAGGGTAA	-0.053
AGAACTCA	-0.025
CAGATCGA	-0.0671
AATGATAA	0.255
GCTAACCA	-0.102

Sequence	binding signal [E-score]
AGTATAGA	0.224
CGGGGCGA	-0.298
GGCTTGCA	-0.00502
AGCGAGCG	-0.0911
CAGCGGGG	-0.145
AACCGGAC	-0.00623
CCAGAGGC	-0.0209
CCGAATGC	0.015
CCTATTCG	-0.0809
CCAGACAA	-0.19
ACACACTG	-0.116
GTACAAAC	0.304
CGAAAATC	0.0534
ACGTTCCA	-0.0685
CTATTGAA	0.0715
ACAAGCCG	-0.177
TACACTCA	0.00258
CCTCTCTC	-0.114
GTGCAGGA	-0.0316
CACGTGTC	0.0021
GCAATACA	0.079
CATTGTAG	0.161
AAACTCAT	0.0953
ACCAGATG	-0.0406
AACAGGTC	-0.195

Sequence	binding signal [E-score]
ACCTGACC	-0.0121
AGGACGAC	-0.24
ATACGTTC	0.0985
AATTAGTG	0.28
ACTACCTC	0.26
CTGATACC	-0.0515
GAGTAGTA	0.305
CCTATTTA	0.315
ACACAGCC	-0.0644
GAGCAATC	-0.00778
TATAGTCA	0.119
GTCCTAAC	-0.11
CGACGACC	-0.148
AATAAAAC	0.228
GGAGCGCA	-0.312
CAAAAAGC	-0.211
ATAGGTCC	0.0227
CCGTACGG	-0.141
ACTAGTCG	0.181
AAGGCCAC	-0.266
TAAGTAAA	0.27
TACCGTGA	0.14
CCGTTCAC	-0.0306
CTGTGTTA	0.0704
AGACTACT	0.198

Sequence	binding signal [E-score]
CTCCCGAA	-0.108
CATCAACG	-0.00383
ACTTGTCA	0.229
ACTTGAAG	0.0191
TAGTCCGA	-0.0536
TATTTAAA	0.186
CCGGAACA	-0.172
GACCTTCA	-0.0794
AGTTTGTA	0.367
AGGGACAT	-0.143
AGGTCGCC	-0.312
ATTGCTTA	0.102
AGGATTAT	0.151
GGTTGAAA	-0.00182
GTCAACAA	0.0719
GCAACGGA	-0.142
GATGTCAC	-0.109
GAACAACC	-0.0483
AGGTGTTA	0.0754
CAGTGTAC	0.0867
CTGGCTGC	-0.155
CCTGGTAG	0.151
CTGGCAAA	-0.0718
ACCCCAGT	-0.17
GACTATGA	-0.0171

Sequence	binding signal [E-score]
CACTCGCA	-0.00263
ATAACTCC	0.18
GCCGGTCC	-0.247
TACGTGAA	0.0208
ATAGCCGA	0.0034
GTAATAAA	0.236
CATAGTCG	0.0698
AAGGGGCC	-0.321
CTCTCGAA	0.0245
AGCCTGGA	-0.197
AGGAGGAA	-0.0927
CGTTCCTA	0.0168
GACTCAAA	-0.0688
AGACCACC	-0.21
AACCATCT	0.0317
CGCACTCA	-0.138
GCTGTTAC	0.0773
GTTCGAAC	0.133
CTTGGTTC	0.0268
CGAAGGAC	-0.192
CGGCACCC	-0.299
TACTCCAA	0.0607
